In PubChem BioAssay AID360 (National Center for Advancing Translational Sciences (NCATS), 2006):
The campaign covered roughly 48,000 compounds. About 550 (1.1%) were called active. Another 4% or so got no clear call; they are omitted. No stated cut-off is given here; in the data, active means potency below about 15 µM; inconclusive means mostly about 16 µM to 33 µM; inactive means weaker than that. This is one part of the list.

These compounds were tested against Lysosomal acid glucosylceramidase (Homo sapiens) (UniProt P04062) (assay: Glucocerebrosidase). Conditions: purified enzyme, resorufin glucoside fluorescence (screen aimed at inhibitors), 20 min.
How it was run: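 Wild-type enzyme at 0.2 nM final in 50mM citric acid/KH2PO4, 10mM sodium taurocholate, 0.01% tween-20, pH 5.9, with resorufin beta-D-glucopyranoside at 30 uM final. Compounds titrated, 20 min at RT, red fluorescence read; AC50 from titration.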
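Further: the screen sought inhibitors.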
Potency means the concentration at half of the fitted maximal effect.

Sequence of UniProt P04062 (P04062 whole entry, looked up): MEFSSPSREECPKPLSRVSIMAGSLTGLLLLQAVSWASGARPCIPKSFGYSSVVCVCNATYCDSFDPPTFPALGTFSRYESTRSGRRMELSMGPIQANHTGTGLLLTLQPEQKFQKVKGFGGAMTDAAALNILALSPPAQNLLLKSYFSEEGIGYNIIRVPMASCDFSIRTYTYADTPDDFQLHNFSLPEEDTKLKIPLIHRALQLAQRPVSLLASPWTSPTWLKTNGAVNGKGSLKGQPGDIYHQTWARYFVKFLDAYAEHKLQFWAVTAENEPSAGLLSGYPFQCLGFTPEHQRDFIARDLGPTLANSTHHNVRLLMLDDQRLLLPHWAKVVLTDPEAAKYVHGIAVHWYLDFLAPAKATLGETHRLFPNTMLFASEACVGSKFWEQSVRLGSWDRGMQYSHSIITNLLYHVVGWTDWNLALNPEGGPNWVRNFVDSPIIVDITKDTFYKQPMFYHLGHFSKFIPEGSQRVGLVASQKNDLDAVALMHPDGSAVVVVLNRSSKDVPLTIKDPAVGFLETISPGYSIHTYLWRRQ

Row | SMILES | Potency
1 | CC1CCCCC1NC(=O)Cn1nnc(-c2ccc(Cl)cc2)n1 (stereo unspecified) | inactive: > 76.9 µM
2 | COCC(=O)Nc1nnc(CCc2ccccc2)s1 | inactive: > 76.9 µM
3 | CCOC(=O)Cn1nnnc1C(CC)N(Cc1cccs1)Cc1cc2ccc(OC)cc2[nH]c1=O (stereo unspecified) | inactive: > 76.9 µM
4 | CC(=O)OC(C(=O)NC1CCCCC1)c1ccc(C)cc1 (stereo unspecified) | inactive: > 76.9 µM
5 | COC(=O)c1ccc(NC(=O)C2C3C=CC(O3)C2C(=O)O)cc1 (stereo unspecified) | inactive: > 76.9 µM
6 | CCOc1cc(C)c(S(=O)(=O)N2CCCC2)cc1C | inactive: > 76.9 µM
7 | CC(=O)Nc1ccc2c(c1)n(C)c(=O)n2C | inactive: > 76.9 µM
8 | Cc1ccc(S(=O)(=O)N2CCN(C(=O)CSC3CCCC3)CC2)c(C)c1 | inactive: > 15.4 µM
9 | CCOC(=O)CC(N)c1ccc2c(c1)OCO2 (stereo unspecified) | inactive: > 76.9 µM
10 | O=C(c1cc(-c2cccnc2)nc2ccc(Br)cc12)N1CCN(c2ncccn2)CC1 | inactive: > 76.9 µM
11 | COc1ccc(C2OC(=O)CC2C(=O)NC(C)C)cc1 (stereo unspecified) | inactive: > 76.9 µM
12 | CCn1cc(C(=O)OCC(=O)Nc2ccc(S(=O)(=O)N3CCCC3)cc2)c(=O)c2ccc(C)nc21 | inactive: > 76.9 µM
13 | CCOC(=O)Cn1c(=O)n(Cc2ccco2)c(=O)c2ccc(C(=O)NCCc3ccccc3)cc21 | inactive: > 76.9 µM
14 | Nc1cc(N)nc(SCC(=O)NCC2CCCO2)n1 (stereo unspecified) | inactive: > 76.9 µM
15 | CCC(O)CNc1nc(SC)nc2sc3c(c12)CCN(C)C3 (stereo unspecified) | inactive: > 76.9 µM
16 | CCN(CC)P(=O)(/C(Cl)=C\Nc1c(C)n(C)n(-c2ccccc2)c1=O)N(CC)CC | inactive: > 76.9 µM
17 | COCCCN=C(c1ccco1)n1c(=S)nc(-c2ccco2)n(CCCOC)c1=S | inactive: > 76.9 µM
18 | COc1cc(C)c(Cl)cc1S(=O)(=O)NCc1ccco1 | inactive: > 76.9 µM
19 | COCCn1c(N2CCN(c3ccc(OC)cc3)CC2)nc2c1c(=O)n(C)c(=O)n2C | inactive: > 76.9 µM
20 | O=C(NC1CCN(Cc2ccccc2)CC1)C1COc2ccccc2O1 (stereo unspecified) | inactive: > 76.9 µM
21 | CC(=O)Nc1nonc1C(=O)N1CCC(C)CC1 | inactive: > 76.9 µM
22 | CCOC(=O)CCS(=O)(=O)c1nc(-c2ccccc2)cc(C(F)(F)F)n1 | inactive: > 76.9 µM
23 | Nc1nnnn1NCc1cccc(OCc2ccccc2)c1 | inactive: > 76.9 µM

Row | SMILES | Potency
24 | NC(=O)Cn1c(S(=O)(=O)Cc2ccccc2)nc2ccccc21 | inactive: > 76.9 µM
25 | COc1cccc(-c2nc(=S)c3c(n2Cc2ccco2)CCCC3)c1 | inactive: > 76.9 µM
26 | CC(C)C1N=C2c3ccccc3N=C(SCC#N)N2C1=O (stereo unspecified) | inactive: > 76.9 µM
27 | NC(=O)CCn1nc(-c2ccc(Cl)cc2)c2ccccc2c1=O | inactive: > 76.9 µM
28 | CCOc1ccccc1N1CCN(S(=O)(=O)c2ccc(F)c(F)c2)CC1 | inactive: > 76.9 µM
29 | COc1ccc(C(C)NC(=O)C2C(=O)NC3(C)CC2c2ccccc2O3)cc1 (stereo unspecified) | inactive: > 76.9 µM
30 | Cc1ccc(NCc2nnc(SCC(=O)Nc3ncc(C)s3)n2Cc2ccco2)c(C)c1 | inactive: > 76.9 µM
31 | CCOCC(=O)N1CCCC(C(=O)OCC)C1 (stereo unspecified) | inactive: > 76.9 µM
32 | COc1cc(C2=NOC(C(=O)N3CCCc4ccccc43)C2)cc(OC)c1OC (stereo unspecified) | inactive: > 76.9 µM
33 | COc1ccc2oc(=O)c(C(=O)N3CCN(c4ccc(F)cc4)CC3)cc2c1 | inactive: > 76.9 µM
34 | CNc1nn(-c2cccc(Cl)c2)nc1N | inactive: > 76.9 µM
35 | Cc1ccn(CCSCC(=O)O)n1 | inactive: > 76.9 µM
36 | CCCc1nc(NC(C)=O)c(C#N)c(-c2ccco2)c1CC | inactive: > 76.9 µM
37 | Cc1csc(NC(=O)c2cccs2)n1 | inactive: > 76.9 µM
38 | COCc1nnc(NC(=O)C(C)C)s1 | inactive: > 76.9 µM
39 | Cn1c(NC(=O)c2ccco2)c(-c2ccccc2Cl)c(=O)c2ccccc21 | inactive: > 76.9 µM
40 | CCOc1ccc2nc(COC(=O)c3ccco3)c(C(C)=O)[n+]([O-])c2c1 | inactive: > 76.9 µM
41 | O=C1c2ccccc2C(=O)N1CCCCn1c(=O)oc2ccccc21 | inactive: > 76.9 µM
42 | CCOc1cc(-c2noc(CCC(=O)Nc3cccnc3)n2)ccc1OC | inactive: > 76.9 µM
43 | CC(C)Oc1ccc(CSc2nnc3n(C)c(=O)c4c5c(sc4n23)CCCC5)cc1 | inactive: > 76.9 µM
44 | CCn1c(SCC(=O)Nc2cc(NC(C)=O)ccc2OC)nnc1-c1ccncc1 | inactive: > 76.9 µM
45 | COCCNC(=O)c1cc(Br)ccc1Cl | inactive: > 76.9 µM
46 | COc1ccc(CC(NC(C)=O)C(=O)N2CCN(C(=O)Nc3ccc(Cl)cc3)CC2)cc1OC (stereo unspecified) | inactive: > 76.9 µM

Row | SMILES | Potency
47 | Cc1[nH]c2ccccc2c1NC(=O)CN1CCN(Cc2ccc3c(c2)OCO3)CC1 | inactive: > 76.9 µM
48 | N#Cc1c(NC(=O)CSc2nnc(-c3ccccc3O)n2-c2ccccc2)sc2c1CCCC2 | active: 10 µM
49 | CCOc1ccc(-c2nnc(NC(=O)c3ccc(OCC(C)C)c(OC)c3)o2)cc1 | inactive: > 76.9 µM
50 | CCOC(=O)N1CCN(c2ncnc3c2oc2nc(C)c4c(c23)CC(C)(C)OC4)CC1 | inactive: > 76.9 µM
51 | COC(=O)c1cnn2c(C(F)(F)F)cc(-c3ccco3)nc12 | inactive: > 76.9 µM
52 | Cc1cccc(N(C(=O)CNC(=O)c2ccco2)C(C(=O)NC2CCCC2)c2cccnc2)c1 (stereo unspecified) | inactive: > 76.9 µM
53 | COc1ccccc1N1C(=O)CC(Sc2ncccc2C(=O)O)C1=O (stereo unspecified) | inactive: > 76.9 µM
54 | Cc1cccc(C)c1NC(=O)C(c1ccccc1)N1CCN(C(=O)c2ccco2)CC1 (stereo unspecified) | inactive: > 76.9 µM
55 | O=C(c1c(Cl)nc2sccn12)N(C(=O)c1c(Cl)nc2sccn12)c1ccc(Cl)cn1 | inactive: > 76.9 µM
56 | Cc1cccc(C)c1OCC(=O)NCc1nnc(SCC(=O)NC2CCCCC2C)n1C (stereo unspecified) | inactive: > 76.9 µM
57 | CCOC(=O)NC(=O)CSc1nnc(C)s1 | inactive: > 76.9 µM
58 | Nc1csnc1C(=O)O | inactive: > 76.9 µM
59 | CCCn1nnnc1NCc1cccn1C | inactive: > 76.9 µM
60 | CC1(C)Cc2ccccc2-c2nnc(SCC(=O)N3CCc4ccccc43)n21 | inactive: > 76.9 µM
61 | O=C(NCc1ccccc1Cl)C1CCN(S(=O)(=O)N2CCCCCC2)CC1 | inactive: > 76.9 µM
62 | Cc1csc(NC(=O)CSc2nnc(-c3ccoc3C)n2Cc2ccco2)n1 | inactive: > 76.9 µM
63 | CC(C)C(=O)Nc1ccc(N2CCN(S(C)(=O)=O)CC2)cc1 | inactive: > 76.9 µM
64 | COc1ccc(S(=O)(=O)Nc2cc(C)c(O)c(S(=O)(=O)c3ccccc3)c2)cc1 | inactive: > 76.9 µM
65 | CN(C)C(=O)c1cc(S(=O)(=O)N(C)C)c(Cl)cc1N1CCCC1 | inactive: > 76.9 µM
66 | CCCCOC(=O)n1c(=O)oc2ccccc21 | inactive: > 76.9 µM
67 | CCOC(=O)COc1nc(Nc2ccccc2C)nc(N(C)C)n1 | inactive: > 76.9 µM
68 | O=C(CN1C(=O)CCS(=O)(=O)c2ccccc21)NCc1ccc(F)cc1 | inactive: > 76.9 µM
69 | Nc1nnc(-c2ccccc2)c(-c2ccccc2)n1 | inactive: > 76.9 µM

Row | SMILES | Potency
70 | Cn1c(SCc2ccc(Br)cc2)nnc1-c1cccs1 | inactive: > 76.9 µM
71 | COc1ccccc1OCCC(=O)OCC(=O)Nc1ncc(Cl)cc1Cl | inactive: > 76.9 µM
72 | Cc1ccc(CN2C(=O)CCC2C(=O)NC2CCCC2)cc1 (stereo unspecified) | inactive: > 76.9 µM
73 | O=c1[nH]c(NCCO)nc2c1C1(CCCCC1)Cc1ccccc1-2 | inactive: > 76.9 µM
74 | CCC(C)NC(=O)N[C@@H](Cc1ccccc1)C(=O)O (stereo partly specified) | inactive: > 76.9 µM
75 | N#Cc1cc(N)c(Nc2ccccc2)cc1C#N | inactive
76 | O=C(CSc1nnc(Cc2cc(=O)[nH]c(=O)[nH]2)n1-c1ccccc1)NCC1CCCO1 (stereo unspecified) | inactive: > 76.9 µM
77 | CC(C)CCn1cnc2c1c(=O)n(C)c(=O)n2C | inactive: > 76.9 µM
78 | C/C(N)=C(/C#N)C(=O)CSc1nnc(COc2ccccc2Cl)o1 | inactive: > 76.9 µM
79 | CC12CCC(C(=O)NCc3ccccn3)(OC1=O)C2(C)C (stereo unspecified) | inactive: > 76.9 µM
80 | O=C(c1cc(-c2ccccc2)on1)N1CCN(Cc2ccc3c(c2)OCO3)CC1 | inactive: > 76.9 µM
81 | CCOC(=O)NC(NC(=O)OCC)C(=O)c1ccccc1 | inactive: > 76.9 µM
82 | c1ccc2c(c1)nc(Nc1ccc3c(c1)OCO3)c1nnnn12 | inactive: > 76.9 µM
83 | O=C(NCCCN1CCCC1=O)C1CCN(S(=O)(=O)N2CCOCC2)CC1 | inactive: > 76.9 µM
84 | O=C(COn1nnc2ccccc21)NCC1CCCCC1 | inactive: > 76.9 µM
85 | COc1ccc(CCN(Cc2cc3cc(C)ccc3[nH]c2=O)C(=O)N2CCCC2)cc1OC | inactive: > 76.9 µM
86 | COc1cccc(C2=NOC(C(=O)N3CCN(Cc4ccccc4)CC3)C2)c1OC (stereo unspecified) | inactive: > 76.9 µM
87 | CCOCCCn1c(C)nc2c(c1=O)c1nc3ccccc3nc1n2-c1ccc(C)cc1 | inactive: > 76.9 µM
88 | Brc1ccc(-c2nc(-c3ccncc3)no2)o1 | inactive: > 76.9 µM
89 | O=C(Cc1n[nH]c(=O)c2ccccc12)NCc1ccccn1 | inactive: > 76.9 µM
90 | CCN1CCN(S(=O)(=O)c2cc(OC)ccc2OC)CC1 | inactive: > 76.9 µM
91 | Cc1cc(C)c(N2C(=NC(=O)CCCC(=O)O)SC3CS(=O)(=O)CC32)c(C)c1 (stereo unspecified) | inactive: > 76.9 µM
